# Measured values published in PubChem BioAssay (Tox21).
# The inconclusive results got no clear call from the source; some entries with a clear call stand among them for comparison. For some assays here: A potency beside an inconclusive call is a rough fit, not a confirmed value. Calls of active or inactive are those of the source. Unless noted, the call rests on the fitted dose curve.
# Tests used:
# [1] = qHTS assay to identify small molecule antagonists of the peroxisome proliferator-activated receptor delta (PPARd) signaling pathway - cell viability counter screen (AID 743213; active means well fitted curve in the direction sought with a large enough effect in the repeat runs; inconclusive means weak or mixed curves; inactive means no such curve, though single readings can be large; an effect the other way counts as inactive or inconclusive; further: nearly all actives have a fitted effect of over 50% in size; further: potency means the concentration at half of the fitted maximal effect); details: PPARd-bla HEK293H viability, CellTiter-Glo luminescence, 17 h; viability change, negative = cytotoxic: at 62 µM (top of the series) unless noted
# How it was run: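 HEK293H PPARd UAS-bla cells, 5 h pre-incubation, compound + L165041 300 nM final, 17 h 37 C; B/G FRET substrate 2 h RT; then CellTiter-Glo 30 min RT, luminescence.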
# [2] = qHTS assay to identify small molecule agonists of the farnesoid-X-receptor (FXR) signaling pathway - cell viability counter screen (AID 743218; active means well fitted curve in the direction sought with a large enough effect in the repeat runs; inconclusive means weak or mixed curves; inactive means no such curve, though single readings can be large; an effect the other way counts as inactive or inconclusive; further: nearly all actives have a fitted effect of over 45% in size; further: potency means the concentration at half of the fitted maximal effect); details: FXR-bla HEK293T viability, CellTiter-Glo luminescence, 16 h; viability change, negative = cytotoxic: at 62.6 µM (top of the series) unless noted
# How it was run: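 Cells were seeded, left 5 h at 37 C and 5% CO2, then dosed with compound in DMSO for 16 h. After the beta-lactamase FRET read, CellTiter-Glo was added and luminescence measured 30 min later.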
# [3] = target: Vitamin D3 receptor (Homo sapiens) (UniProt P11473); assay: qHTS assay to identify small molecule antagonists of the vitamin D receptor (VDR) signaling pathway (AID 743223; active means well fitted inhibition curve with a large enough effect in the signal ratio in the repeat runs, not every such curve was filed as active; inconclusive means weak or mixed curves, or effect the other way; inactive means no such curve, though single readings can be large or run the other way; the % refers to the signal ratio; further: on the % scale 0 is the no-effect control and ±100 the full control effect); details: VDR-UAS-bla HEK293T, beta-lactamase FRET ratio, 16 h
# How it was run: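 Quantitative HTS in VDR-bla reporter cells stimulated with 1alpha,25-dihydroxyvitamin D3, 3 nM final. Compound exposure 16 h, 37C, 5% CO2. Read-out: beta-lactamase FRET substrate fluorescence, 2 h RT.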
# [4] = qHTS assay to identify small molecule antagonists of the vitamin D receptor (VDR) signaling pathway - cell viability counter screen (AID 743225; active means well fitted curve in the direction sought with a large enough effect in the repeat runs; inconclusive means weak or mixed curves; inactive means no such curve, though single readings can be large; an effect the other way counts as inactive or inconclusive; further: nearly all actives have a fitted effect of over 50% in size; further: potency means the concentration at half of the fitted maximal effect); details: VDR-bla HEK293T viability, CellTiter-Glo luminescence, 16 h; viability change, negative = cytotoxic: at 61 µM (top of the series) unless noted
# How it was run: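 Same-well multiplex: following 16 h treatment of HEK 293T cells carrying a UAS-driven beta-lactamase reporter with compound and agonist (3 nM final), and a 2 h FRET substrate step, CellTiter-Glo was added and luminescence read after 30 min.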
# [5] = qHTS assay to identify small molecule agonists of the endoplasmic reticulum stress response signaling pathway - cell viability counter screen (AID 1159517); further: nearly all actives have a fitted effect of over 50% in size; further: potency means the concentration at half of the fitted maximal effect
# How it was run: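 Cytotoxicity of test compounds toward ESRE-bla HeLa cells was assessed after 5 hr exposure. The luminescent CellTiter-Glo signal was measured 30 min after reagent addition.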
# [6] = target: Peroxisome proliferator-activated receptor delta (Homo sapiens) (UniProt Q03181); assay: qHTS assay to identify small molecule antagonists of the peroxisome proliferator-activated receptor delta (PPARd) signaling pathway (AID 743215; active means well fitted inhibition curve with a large enough effect in the signal ratio in the repeat runs, not every such curve was filed as active; inconclusive means weak or mixed curves, or effect the other way; inactive means no such curve, though single readings can be large or run the other way; the % refers to the signal ratio;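 further: cells stimulated with agonist L165041 at 300 nM final during compound exposure; on the % scale 0 is the no-effect control and ±100 the full control effect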); details: HEK293H PPARd-UAS-bla, beta-lactamase FRET ratio, antagonist, 17 h; ratio activity, negative = inhibition: at 62 µM (top of the series) unless noted
# How it was run: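 Cells: HEK293H with a UAS-driven beta-lactamase reporter responsive to PPARd. Compounds were co-added with L165041 (300 nM, final) and incubated 17 h at 37 C before a 2 h room-temperature FRET substrate step and fluorescence reading.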
# [7] = qHTS assay to identify small molecule agonists of the vitamin D receptor (VDR) signaling pathway - cell viability counter screen (AID 743224; active means well fitted curve in the direction sought with a large enough effect in the repeat runs; inconclusive means weak or mixed curves; inactive means no such curve, though single readings can be large; an effect the other way counts as inactive or inconclusive; further: potency means the concentration at half of the fitted maximal effect; nearly all actives have a fitted effect of over 50% in size); details: VDR-bla HEK293T viability, CellTiter-Glo luminescence, 16 h; activity change, negative = cytotoxicity: at 62.6 µM (top of the series)
# How it was run: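 Cells: VDR-bla, 2,000/well, settled 4 h. Treatment: compounds in DMSO, 16 h, 37C/5% CO2. Readout: CellTiter-Glo luminescence after 30 min RT.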
# [8] = target: Bile acid receptor (Homo sapiens) (UniProt Q96RI1); assay: qHTS assay to identify small molecule antagonists of the farnesoid-X-receptor (FXR) signaling pathway (AID 743217; active means well fitted inhibition curve with a large enough effect in the signal ratio in the repeat runs, not every such curve was filed as active; inconclusive means weak or mixed curves, or effect the other way; inactive means no such curve, though single readings can be large or run the other way; the % refers to the signal ratio; further: potency means the concentration at half of the fitted maximal effect); details: HEK293T FXR-UAS-bla, beta-lactamase ratio, CDCA-stimulated, 16 h; activity change, negative = inhibition: at 62.6 µM (top of the series) unless noted
# How it was run: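 Cells carrying a UAS-driven beta-lactamase reporter (GeneBLAzer FXR-UAS-bla HEK 293T) were plated and rested 5 h at 37 °C. Compounds in DMSO were added alongside chenodeoxycholic acid agonist at 50 uM final and left 16 h at 37 °C before FRET substrate readout.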
# [9] = target: Bile acid receptor (Homo sapiens) (UniProt Q96RI1); assay: qHTS assay to identify small molecule agonists of the farnesoid-X-receptor (FXR) signaling pathway (AID 743220; active means well fitted activation curve with a large enough effect in the signal ratio in the repeat runs, not every such curve was filed as active; inconclusive means weak or mixed curves, or effect the other way; the % refers to the signal ratio; further: on the % scale 0 is the no-effect control and ±100 the full control effect); details: HEK293T FXR-UAS-bla, beta-lactamase FRET ratio, 16 h; activation: at 62.6 µM (top of the series) unless noted
# How it was run: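 FXR-UAS-bla HEK 293T cells carrying a UAS-driven beta-lactamase reporter were plated for 5 h at 37C/5% CO2, then exposed to DMSO-dissolved Tox21 10K compounds for 16 h at 37C. A LiveBLAzer B/G FRET substrate was loaded for 2 h at room temperature before fluorescence reading.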
# [10] = target: Vitamin D3 receptor (Homo sapiens) (UniProt P11473); assay: qHTS assay to identify small molecule agonists of the vitamin D receptor (VDR) signaling pathway (AID 743222); details: HEK293T VDR-UAS-bla, beta-lactamase FRET ratio, 16 h; for Potency: activation: at 63.5 µM (top of the series) unless noted; further: potency means the concentration at half of the fitted maximal effect
# How it was run: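 Cells carrying a VDR-driven beta-lactamase reporter are seeded at 2,000 per well and rested 4 h. Compounds in DMSO are added for 16 h at 37C, and FRET substrate fluorescence is measured after 2 h at room temperature.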
# [11] = qHTS assay to identify small molecule antagonists of the retinoid-related orphan receptor gamma (ROR-gamma) signaling pathway - cell viability counter screen (AID 1159520; active means well fitted curve in the direction sought with a large enough effect in the repeat runs; inconclusive means weak or mixed curves; inactive means no such curve, though single readings can be large; an effect the other way counts as inactive or inconclusive; further: nearly all actives have a fitted effect of over 50% in size; further: potency means the concentration at half of the fitted maximal effect)
# How it was run: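 Tet-on ROR gamma CHO cells (1,000/well) were plated 4 hr, given compounds in DMSO for 2 hr at 37 C, then induced with 1 uM final doxycycline for 16 hr. Viability was read as ATP by CellTiter-Glo luminescence after 30 min.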
# [12] = target: Nuclear receptor ROR-gamma (Homo sapiens) (UniProt P51449); assay: qHTS assay to identify small molecule antagonists of the retinoid-related orphan receptor gamma (ROR-gamma) signaling pathway (AID 1159521; active means well fitted curve in the direction sought with a large enough effect in the repeat runs; inconclusive means weak or mixed curves; inactive means no such curve, though single readings can be large; an effect the other way counts as inactive or inconclusive)
# How it was run: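 Inducible-expression reporter assay: doxycycline (1 uM final) switched on RORγ in CHO cells bearing a ROR response element-luciferase construct, with test compounds present from 2 h beforehand. Decreased luminescence after 16 h defined antagonist activity.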
# [13] = qHTS assay to identify small molecule agonists of the AP-1 signaling pathway (AID 1159526); details: ME-180 (cervical carcinoma) AP-1-bla reporter, beta-lactamase FRET ratio, 5 h; activation: at 76.8 µM (top of the series) unless noted; further: potency means the concentration at half of the fitted maximal effect
# [14] = target: Peroxisome proliferator-activated receptor delta (Homo sapiens) (UniProt Q03181); assay: qHTS assay to identify small molecule agonists of the peroxisome proliferator-activated receptor delta (PPARd) signaling pathway (AID 743212); details: HEK293H PPARd-UAS-bla, beta-lactamase FRET ratio, 17 h; activation: at 62.6 µM (top of the series) unless noted; further: on the % scale 0 is the no-effect control and ±100 the full control effect
# How it was run: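 Beta-lactamase reporter read by fluorescence (LiveBLAzer B/G FRET, 2 h, room temperature). Test agents, in DMSO, incubated at 37 C with PPARd-bla HEK293H cells.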
# [15] = target: Retinoic acid receptor RXR-alpha (Homo sapiens) (UniProt P19793); assay: qHTS assay to identify small molecule agonists of the RXR signaling pathway (AID 1159527); details: HEK293T RXRa-UAS-bla, beta-lactamase ratio, 16 h; activation: at 76.8 µM (top of the series) unless noted; further: nearly all actives have a fitted effect of over 35% in size; further: potency means the concentration at half of the fitted maximal effect
# How it was run: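 Compounds in DMSO were added to RXR-alpha-UAS-bla HEK 293T cells kept in 2% charcoal-stripped serum, and incubated 16 hr at 37 C with 5% CO2. Reporter signal came from a 2 hr B/G FRET substrate step.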
# [16] = qHTS assay to identify small molecule agonists of the RXR signaling pathway - cell viability counter screen (AID 1159529; active means well fitted curve in the direction sought with a large enough effect in the repeat runs; inconclusive means weak or mixed curves; inactive means no such curve, though single readings can be large; an effect the other way counts as inactive or inconclusive)
# How it was run: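 Counter screen: CellTiter-Glo luminescence. Cells: RXR-alpha-UAS-bla HEK 293T. Medium: 2% charcoal-stripped FBS. Treatment: 16 h, 37 C. Reagent incubation: 30 min, RT.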
# [17] = activity change, negative = inhibition: at 61 µM (top of the series) unless noted
# Tags describe the fitted curve by direction and shape or compound fluorescence and quenching.
# Sequence of UniProt P11473 (P11473 whole entry, looked up): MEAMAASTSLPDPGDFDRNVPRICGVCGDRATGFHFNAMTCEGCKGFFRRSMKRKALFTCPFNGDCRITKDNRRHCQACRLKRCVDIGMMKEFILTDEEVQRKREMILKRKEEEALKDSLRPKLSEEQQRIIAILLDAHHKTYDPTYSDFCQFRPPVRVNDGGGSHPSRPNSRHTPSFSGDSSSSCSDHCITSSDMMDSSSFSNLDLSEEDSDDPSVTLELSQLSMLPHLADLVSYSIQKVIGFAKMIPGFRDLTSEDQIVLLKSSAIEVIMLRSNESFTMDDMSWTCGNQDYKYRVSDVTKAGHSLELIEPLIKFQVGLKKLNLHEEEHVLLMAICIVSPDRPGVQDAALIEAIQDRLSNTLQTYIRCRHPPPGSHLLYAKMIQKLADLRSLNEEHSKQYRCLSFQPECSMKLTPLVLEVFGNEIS
# Sequence of UniProt P19793 (P19793 whole entry, looked up): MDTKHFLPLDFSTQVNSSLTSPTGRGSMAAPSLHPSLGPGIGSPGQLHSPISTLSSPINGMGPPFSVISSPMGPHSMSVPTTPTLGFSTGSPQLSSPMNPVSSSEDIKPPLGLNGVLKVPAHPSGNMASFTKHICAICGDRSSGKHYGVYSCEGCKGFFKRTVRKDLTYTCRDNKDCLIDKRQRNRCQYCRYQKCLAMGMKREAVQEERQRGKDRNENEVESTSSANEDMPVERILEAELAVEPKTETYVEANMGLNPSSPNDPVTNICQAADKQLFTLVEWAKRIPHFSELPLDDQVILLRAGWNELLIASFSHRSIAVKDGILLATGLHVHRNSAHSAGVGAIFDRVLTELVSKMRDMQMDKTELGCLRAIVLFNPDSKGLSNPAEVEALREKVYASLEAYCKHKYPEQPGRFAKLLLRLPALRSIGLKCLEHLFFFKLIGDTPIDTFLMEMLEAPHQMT
# Sequence of UniProt Q03181 (Q03181 whole entry, looked up): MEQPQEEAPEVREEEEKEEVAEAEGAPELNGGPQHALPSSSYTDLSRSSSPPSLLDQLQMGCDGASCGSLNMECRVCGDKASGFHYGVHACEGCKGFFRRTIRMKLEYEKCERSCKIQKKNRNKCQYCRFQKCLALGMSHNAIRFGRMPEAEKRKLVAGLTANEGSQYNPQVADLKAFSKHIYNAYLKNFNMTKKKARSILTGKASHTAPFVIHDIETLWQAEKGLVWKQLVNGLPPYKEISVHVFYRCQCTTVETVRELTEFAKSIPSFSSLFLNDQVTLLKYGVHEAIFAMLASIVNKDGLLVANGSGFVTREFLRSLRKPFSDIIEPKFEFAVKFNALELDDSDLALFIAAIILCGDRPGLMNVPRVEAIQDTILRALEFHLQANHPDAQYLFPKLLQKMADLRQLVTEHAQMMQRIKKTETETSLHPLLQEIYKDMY
# Sequence of UniProt Q96RI1 (Q96RI1 whole entry, looked up): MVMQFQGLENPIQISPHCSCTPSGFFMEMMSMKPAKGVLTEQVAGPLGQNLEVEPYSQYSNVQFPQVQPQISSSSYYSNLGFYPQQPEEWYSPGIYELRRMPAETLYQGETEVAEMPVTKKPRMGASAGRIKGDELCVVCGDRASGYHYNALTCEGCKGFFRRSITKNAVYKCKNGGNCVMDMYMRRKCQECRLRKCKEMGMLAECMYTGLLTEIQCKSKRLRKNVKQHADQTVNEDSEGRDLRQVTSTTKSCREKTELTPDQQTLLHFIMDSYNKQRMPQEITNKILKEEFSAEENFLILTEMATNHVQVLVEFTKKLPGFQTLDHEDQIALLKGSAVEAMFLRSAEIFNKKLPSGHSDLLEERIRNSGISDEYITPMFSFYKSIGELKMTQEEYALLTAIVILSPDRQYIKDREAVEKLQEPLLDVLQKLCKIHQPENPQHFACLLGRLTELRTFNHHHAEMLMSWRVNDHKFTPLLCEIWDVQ
structure (smiles),measurement,setting,value
CC(C)CC(C)CC(O)CC(C)C (configuration not stated),Potency,[1],"inconclusive: 1.12 µM [cytotoxic, single point]"
same,Potency,[2],"inconclusive: 0.776 µM [rising, partial curve]"
same,"activity change, negative = inhibition",[3]; at 61 µM (top of the series),inconclusive: -2.63%
same,"activity change, negative = inhibition",[3]; at 78.8 µM (top of the series),inconclusive: 10.4%
same,Potency,[4],"inconclusive: 63.2 µM [cytotoxic, partial curve, poor fit]"
same,Potency,[5],inactive
CCCCCCCCCCCCCOC(=O)CCSCCC(=O)OCCCCCCCCCCCCC,Potency,[2],inactive
same,Potency,[5],"inconclusive: 2.9 µM [cytotoxic, partial curve, poor fit]"
N=C(N)N,Potency,[6],inactive
same,Potency,[7],"inconclusive: 33.5 µM [rising, partial curve, poor fit]"
same,Potency,[5],inactive
O=C(O)CNC(=O)c1ccccc1,"ratio activity, negative = inhibition",[6],inconclusive: 2.44%
same,Potency,[5],inactive
O=C(/N=N/C(=O)OCc1ccccc1)OCc1ccccc1,Potency,[6],inactive
same,"activity change, negative = inhibition",[3]; [17],inconclusive: 4.81%
same,Potency,[5],inactive
CCC(CO)(CO)CO,Potency,[8],inactive
same,Potency,[5],"inconclusive: 0.0114 µM [cytotoxic, full curve, poor fit]"
O=C(c1ccccc1)c1ccc(O)cc1,Potency,[1],"inconclusive: 12.4 µM [cytotoxic, single point]"
same,Potency,[9],inactive
same,Potency,[5],"inconclusive: 22.1 µM [rising, single point]"
CC1c2ccccc2CN1NC(=O)c1ccc(Cl)c(S(N)(=O)=O)c1 (configuration not stated),"ratio activity, negative = inhibition",[6],inconclusive: 6.02%
same,Potency,[5],inactive
CCC(CC)C(C)CCOC(C)=O (configuration not stated),Potency,[6],inactive
same,Potency,[3]; [17],inactive
same,Potency,[5],"inconclusive: 0.195 µM [cytotoxic, single point]"
Cc1cccc2sc(N)nc12,Potency,[1],inactive
same,Potency,[4],inactive
same,Potency,[5],"inconclusive: 62.4 µM [rising, single point]"
COc1ccc(CCN(C)CCCC(C#N)(c2cc(OC)c(OC)c(OC)c2)C(C)C)cc1OC (configuration not stated),"ratio activity, negative = inhibition",[6],inconclusive: 5.05%
same,"activity change, negative = inhibition",[3]; [17],inconclusive: -4.69%
same,Potency,[5],inactive
CCOC(=O)C(C)C(C)=O (configuration not stated),Potency,[6],inactive
same,Potency,[5],inactive
Nc1ccc(F)cc1,"ratio activity, negative = inhibition",[6],inconclusive: -23% [at 80.4 µM]
same,Potency,[10],inactive
same,Potency,[5],"inconclusive: 4.56 µM [cytotoxic, partial curve, poor fit]"
CCN1C(=O)c2ccccc2C1Nc1ccc(OCCN2CCCCC2)cc1 (configuration not stated),"ratio activity, negative = inhibition",[6],inconclusive: 7.53%
same,Potency,[3]; [17],inactive
same,Potency,[5],"inconclusive: 0.952 µM [cytotoxic, single point]"
O=C(O)c1cc(Br)c(O)c(Br)c1,"ratio activity, negative = inhibition",[6],inconclusive: 14.1%
same,Potency,[8],inactive
same,Potency,[2],inactive
same,Potency,[3]; [17],inactive
same,Potency,[5],inactive
CCN(CC)CC(=O)Nc1c(C)cccc1C(=O)OC,Potency,[1],inactive
same,Potency,[2],"inconclusive: 16.8 µM [cytotoxic, single point]"
same,Potency,[4],inactive
same,Potency,[5],"inconclusive: 1.51 µM [cytotoxic, full curve, poor fit]"
C=COCC1CCC(CO)CC1 (configuration not stated),Potency,[9],inactive
CCCCC(CC)CNCC(CC)CCCC (configuration not stated),Potency,[9],inactive
O=C(O)c1ccccc1,activation,[10]; at 6.01 µM (top of the series),inconclusive: -7.79%
same,activation,[10]; at 81.1 µM (top of the series),inconclusive: 2.59%
CC(=O)c1ccc(C(C)=O)cc1,Potency,[7],"inconclusive: 56.2 µM [rising, single point]"
CC1CCCO1 (configuration not stated),Potency,[7],"inconclusive: 17 µM [cytotoxic, partial curve, poor fit]"
Oc1cc(Cl)cc(Cl)c1Cl,"ratio activity, negative = inhibition",[6],inconclusive: 4.27% [at 80.4 µM]
same,Potency,[11],"inconclusive: 39.5 µM [cytotoxic, partial curve, poor fit]"
same,Potency,[12],"inconclusive: 19.8 µM [inhibitor, full curve]"
same,Potency,[13],inconclusive: 56.3 µM
COc1ccc(Cl)cc1C(=O)NCCc1ccc(S(=O)(=O)NC(=O)NC2CCCCC2)cc1,activation,[14],inconclusive: 2.46%
same,activation,[9],inconclusive: 5.79%
same,Potency,[4],"inconclusive: 4.9 µM [cytotoxic, single point]"
same,Potency,[11],inactive
same,Potency,[12],"inconclusive: 61.1 µM [inhibitor, partial curve, poor fit]"
same,Potency,[15],"inconclusive: 21.9 µM [fluorescent, single point]"
same,activation,[15],inconclusive: 6.94% [at 35.3 µM]
CC(C)(C)C1CCCCC1=O (configuration not stated),Potency,[11],inactive
same,Potency,[12],"inconclusive: 2.43 µM [inhibitor, single point]"
CC[C@H](NC(=O)c1cc(F)ccc1NS(=O)(=O)c1cccc2cccnc12)c1ccccc1,Potency,[1],"inconclusive: 65.5 µM [cytotoxic, partial curve, poor fit]"
same,"ratio activity, negative = inhibition",[6],inconclusive: -37.7% [inhibitor]
same,Potency,[8],"inconclusive: 41.3 µM [inhibitor, partial curve]"
same,Potency,[10],"inconclusive: 11.6 µM [rising, full curve, poor fit]"
same,Potency,[11],"inconclusive: 36.5 µM [cytotoxic, partial curve, poor fit]"
same,Potency,[12],active: 10.3 µM
same,Potency,[13],"inconclusive: 36.8 µM [falling, partial curve]"
same,Potency,[15],"inconclusive: 58.3 µM [activator, partial curve, poor fit]"
same,Potency,[16],"inconclusive: 29.2 µM [cytotoxic, partial curve]"
